The text below walks through data of the supplement of paper PMC5499739.

In all, about 16,000 sequences were measured (“Z-score”: median about -0.37, highest 2% from about 3.2 on). The list shows a part of the results.

The experiment deals with RBM10 RRM1-ZnF (GST-tagged construct). Put plainly: RNAcompete 7-mer binding Z-score; higher = stronger binding preference. Here is the method:
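RNAcompete: 20 pmol GST-tagged RBM10 RNA-binding constructs were incubated with a designed RNA pool of about 241,000 sequences up to 41 nt (1.5 nmol) on glutathione beads for 30 min at 4 °C and washed. Bound RNAs were identified by microarray hybridisation. Each RNA 7-mer is scored by a one-sided Z-score of its enrichment, computed over probes that contain the 7-mer within longer pool sequences.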
On to UCGAGAC, for which the “RNAcompete 7-mer binding Z-score” value is -0.344. On to GACCGUA, for which the “RNAcompete 7-mer binding Z-score” value was -0.62.

For the sequence UCGAUAG, the “RNAcompete 7-mer binding Z-score” value was -0.149.

ACUCUUA: the “RNAcompete 7-mer binding Z-score” value was -0.896. Turning to GGGGAAA, the “RNAcompete 7-mer binding Z-score” value amounted to 3.19.

In the case of UCCAGAG, the “RNAcompete 7-mer binding Z-score” value was -0.35.

With AUGGAAA, the “RNAcompete 7-mer binding Z-score” value was found to be 2.57. With CACCAUA, the “RNAcompete 7-mer binding Z-score” value was -0.691. As for UGGCGCC, the figure is -0.158; as for GCUAGAG, 0.543. As for AGGACUA, the “RNAcompete 7-mer binding Z-score” value was -0.0934. Turning to AACGAUU, the “RNAcompete 7-mer binding Z-score” value is -0.483.

On to UAAAAAG, for which the “RNAcompete 7-mer binding Z-score” value worked out at 0.16. For the sequence ACCGGGU, the “RNAcompete 7-mer binding Z-score” value amounted to 0.631.

With UUAGGCU, the “RNAcompete 7-mer binding Z-score” value stood at 0.095. For the sequence UGUAUAG, the “RNAcompete 7-mer binding Z-score” value came to 0.0528. For CAACUCG, the “RNAcompete 7-mer binding Z-score” value was -0.691. As to AGCGCUC, the “RNAcompete 7-mer binding Z-score” value was -0.746. Turning to GUCCGUC, the “RNAcompete 7-mer binding Z-score” value was -0.366. As for UCUCAGC, the figure is -0.678; as for AUCCCAG, -0.409; as for GAAUCAC, -0.321. Turning to AUACUUG, the “RNAcompete 7-mer binding Z-score” value is -0.555. With UUAAAUG, the “RNAcompete 7-mer binding Z-score” value is -0.331.

As to CUGACUG, the “RNAcompete 7-mer binding Z-score” value is -0.217. Regarding GUAGCUA, the “RNAcompete 7-mer binding Z-score” value is -0.0642. For CACGAAG, the “RNAcompete 7-mer binding Z-score” value was -0.11. As for GCCGACC, the figure is -0.389; as for CAUGUGG, 0.748; as for UACUUUC, -0.974. In the case of UCGACGU, the “RNAcompete 7-mer binding Z-score” value was -0.555.

UGGGUGG: the “RNAcompete 7-mer binding Z-score” value is 4.14. Consider AAGGUCU, for which the “RNAcompete 7-mer binding Z-score” value was -0.0739. The figure for CGAUGCA is -0.392.

Consider AUGCCCU, for which the “RNAcompete 7-mer binding Z-score” value was -0.808. As for UAACGUA, the figure is -0.282; as for AGCACGC, -0.188; as for CUCACUU, -0.925. Take AUCUGAC: the “RNAcompete 7-mer binding Z-score” value is -0.548. As to GUCCACA, the “RNAcompete 7-mer binding Z-score” value is -0.418. For the sequence CAGGUUC, the “RNAcompete 7-mer binding Z-score” value is -0.0609. Regarding AUUAUUU, the “RNAcompete 7-mer binding Z-score” value is -0.571. As for CUUAAAG, the figure is -0.763. Take UUUGUAC: the “RNAcompete 7-mer binding Z-score” value is -0.617. As for CGGUGUA, the figure is 0.654; as for UCGCUGG, -0.0382. Regarding CGCACCG, the “RNAcompete 7-mer binding Z-score” value is -0.292.

In the case of ACAGCCA, the “RNAcompete 7-mer binding Z-score” value was -0.626.

Consider CUCCCCG, for which the “RNAcompete 7-mer binding Z-score” value is -0.23. Take AUACCAG: the “RNAcompete 7-mer binding Z-score” value is -0.292. Turning to ACUGGAU, the “RNAcompete 7-mer binding Z-score” value was 0.582.

With AAGCGGC, the “RNAcompete 7-mer binding Z-score” value was determined as 0.199. For the sequence CUCGUCG, the “RNAcompete 7-mer binding Z-score” value was -0.513.

With UGUGGUA, the “RNAcompete 7-mer binding Z-score” value is 1.37. GCAGUAC: the “RNAcompete 7-mer binding Z-score” value was -0.0187. Consider UCGAUGA, for which the “RNAcompete 7-mer binding Z-score” value is -0.331.

On to AAGGUUU, for which the “RNAcompete 7-mer binding Z-score” value came to 2.51. As to GUGUAUA, the “RNAcompete 7-mer binding Z-score” value worked out at 0.654.

As to CACCUCU, the “RNAcompete 7-mer binding Z-score” value was -0.828.

For the sequence UGUGUAC, the “RNAcompete 7-mer binding Z-score” value was -0.207.

Turning to CUCUCUU, the “RNAcompete 7-mer binding Z-score” value was -0.873.

Regarding AUACCAC, the “RNAcompete 7-mer binding Z-score” value was -0.578. As for UACCACC, the figure is -0.629. As for CUCUUAA, the figure is -0.802. As for CCCGUAU, the figure is -0.828. As to CGAGCCU, the “RNAcompete 7-mer binding Z-score” value is -0.61.

For the sequence GACCCGC, the “RNAcompete 7-mer binding Z-score” value is -0.724. Turning to GAUUAUA, the “RNAcompete 7-mer binding Z-score” value is -0.0382. For CCGUAUU, the “RNAcompete 7-mer binding Z-score” value is -0.844. CCGUGUU: the “RNAcompete 7-mer binding Z-score” value was -0.617.

With CUCGGAC, the “RNAcompete 7-mer binding Z-score” value is -0.542. As for CAAGUGC, the figure is -0.256. The figure for GGCUUGU is -0.243; for GCUCCUG it is -0.392. Regarding GACAAAG, the “RNAcompete 7-mer binding Z-score” value was 0.803. On to AAGUGCA, for which the “RNAcompete 7-mer binding Z-score” value was found to be 0.017.

UAACCCG: the “RNAcompete 7-mer binding Z-score” value is -0.668. Take UGGAACU: the “RNAcompete 7-mer binding Z-score” value was determined as 0.696. Regarding CACUCUU, the “RNAcompete 7-mer binding Z-score” value is -0.873. On to UCCAGGG, for which the “RNAcompete 7-mer binding Z-score” value stood at 0.865. Turning to GUGAGCA, the “RNAcompete 7-mer binding Z-score” value was determined as 0.582.

In the case of CUAGCAU, the “RNAcompete 7-mer binding Z-score” value was -0.642.

For the sequence UAAGGGA, the “RNAcompete 7-mer binding Z-score” value amounted to 3.27.

As for CAUUAGA, the “RNAcompete 7-mer binding Z-score” value is -0.493. For the sequence UUACACU, the “RNAcompete 7-mer binding Z-score” value was -0.724.

Turning to UGAAGAG, the “RNAcompete 7-mer binding Z-score” value came to 1.15. As to UGGGAAA, the “RNAcompete 7-mer binding Z-score” value was found to be 2.58. The figure for GCCACGG is 0.332; for CGAGCUG it is -0.171; for CUUAAUA it is -0.73. On to ACACGUG, for which the “RNAcompete 7-mer binding Z-score” value is -0.0934. Regarding UGCCUGG, the “RNAcompete 7-mer binding Z-score” value is -0.223. Consider ACGCUCC, for which the “RNAcompete 7-mer binding Z-score” value is -0.698. The figure for UUGACGU is -0.448; for UUAUUAC it is -0.594; for UUUGGAC it is -0.223. GCCCGAC: the “RNAcompete 7-mer binding Z-score” value is -0.532. Consider CAGCUGC, for which the “RNAcompete 7-mer binding Z-score” value is -0.474.

Regarding AGCCGCG, the “RNAcompete 7-mer binding Z-score” value was -0.386. The figure for CCAUCCC is -0.591.
